Laboratory results reported in PubChem BioAssay AID485294 (National Center for Advancing Translational Sciences (NCATS), 2010).
About 150 (0.041%) of roughly 370,000 compounds were called active. The inconclusive results got no clear call from the source; some entries with a clear call stand among them for comparison. Calls come from the whole dose curve; as a rule, active = well fitted inhibition curve with a large enough effect; inconclusive = small, poorly fitted or top-dose-only effect; inactive = flat fitted curve, though single readings scatter. Potencies of inconclusive entries are left out as doubtful fits.

target: Beta-lactamase (Escherichia coli (strain K12)) (UniProt P00811); assay: qHTS Inhibitors of AmpC Beta-Lactamase (assay with detergent); settings: AmpC hydrolysis of nitrocefin, absorbance 480 nm, 0.01% Triton; series mostly up to 114 µM; note: nearly all actives have a fitted effect of over 25% in size
Sequence of UniProt P00811 (P00811 whole entry, looked up): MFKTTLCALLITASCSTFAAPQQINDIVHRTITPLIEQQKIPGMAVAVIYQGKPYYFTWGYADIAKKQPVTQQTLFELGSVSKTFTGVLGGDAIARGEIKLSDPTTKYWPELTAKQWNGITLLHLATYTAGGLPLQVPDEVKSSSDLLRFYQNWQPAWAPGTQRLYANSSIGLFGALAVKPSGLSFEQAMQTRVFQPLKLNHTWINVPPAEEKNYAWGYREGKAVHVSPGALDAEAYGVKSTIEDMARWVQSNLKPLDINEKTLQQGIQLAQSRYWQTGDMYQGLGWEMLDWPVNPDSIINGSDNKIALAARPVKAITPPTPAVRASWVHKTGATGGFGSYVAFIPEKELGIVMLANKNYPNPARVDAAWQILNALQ
How it was run: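 20 mM phosphate pH 7.0 + 0.01% (detergent screen) or 0.0001% Triton X-100; 5.3 nM AmpC reagent; cpd preinc 15 min RT; nitrocefin (800 uM stock) to start; A480 q20 s × 4 min; Activity was normalised to no-enzyme and no-compound control wells.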
Potency is the fitted concentration of half-maximal effect; tags give direction and shape of the fitted curve.

SMILES	Potency
O=C(CSc1nnc2scc(-c3ccccc3)n12)c1ccc2c(c1)OCCO2	inconclusive [inhibitor, full curve]
Cc1ccc(NC(=O)Cn2cc(C(F)(F)F)cc(Cl)c2=O)cc1S(=O)(=O)N1CCCCC1	inconclusive [inhibitor, full curve]
O=C(NCCc1c[nH]c2ccccc12)Nc1ccccc1C(F)(F)F	inactive
CCOc1cc(NC(=O)c2ccccc2OC)c(OCC)cc1NC(=O)c1ccccc1	inconclusive [inhibitor, full curve, poor fit]
Cc1oc(-c2ccc(Cl)cc2)nc1CSc1nnc(C)n2c1cc1sccc12	inactive
CCOc1cccc(OCCn2cnc3ccccc3c2=O)c1	inactive
C/C(CC(=O)Nc1ccccn1)=N\NC(=O)c1cnccn1	inactive
O=C(C1=CC=CN2CCS(=O)(=O)N=C12)N1CCN(c2cccc(Cl)c2)CC1	inconclusive [inhibitor, full curve, poor fit]
CCOCCCNC(=O)c1c(NC(=O)c2cc(=O)c3cc(C)c(C)cc3o2)sc2c1CCC2	inactive
CC12COC3(C(=O)Nc4ccccc4)CC1CCC32C (centres undefined)	inactive
O=S(=O)(c1ccc(F)cc1)c1nc(-c2ccccc2F)oc1N1CCCCC1	inconclusive [inhibitor, full curve, poor fit]
CCCNC(=O)C1CCN(c2cc(C)nc3c(-c4ccc(OC)c(OC)c4)c(C)nn23)CC1	inactive
O=C1CN(C(=O)c2ccccc2)C(c2ccc(F)cc2)c2cc(Br)ccc2N1 (centres undefined)	inconclusive [inhibitor, full curve, poor fit]
COCCCN1C(=O)/C(=C\c2cccs2)C(C(=O)OC)=C1C	inconclusive [inhibitor, single point]
Cc1ccc(C)c(NC(=O)CSc2nncn3c2cc2sccc23)c1	inactive
Cc1ccc(-n2c(SCC(=O)Nc3cc(C)on3)nc3c(c2=O)SC(C)C3)cc1 (centres undefined)	inconclusive [inhibitor, partial curve, poor fit]
O=C(NC(=S)Nc1cccc2ncccc12)c1ccccc1	inconclusive [inhibitor, single point]
COc1ccc(/C=N/N2CCN(C)CC2)cc1OC	inconclusive [inhibitor, full curve, poor fit]
Cc1nc2ccc(S(=O)(=O)NCC(=O)N3CCCCC3)cc2s1	inconclusive [inhibitor, single point]
CC1(C)C(c2ccccc2)=[N+]([O-])C2(CCCCC2=O)N1O (centres undefined)	inconclusive [inhibitor, partial curve]
CCc1ccc(NC(=O)c2cnn(-c3c(C)cccc3C)c2C2CCNCC2)cc1	inactive
O=c1[nH]c(O)c(N=Nc2ccc([N+](=O)[O-])cc2)c(=O)[nH]1	inconclusive [inhibitor, full curve, poor fit]

SMILES	Potency
CC1=NCCc2c1[nH]c1ccccc21	inconclusive [inhibitor, full curve]
O=C(Cn1cnc2c(oc3ccccc32)c1=O)NCc1ccccc1	inconclusive [inhibitor, full curve, poor fit]
O=C(CCCNC(=O)c1ccc(Cl)cc1)OCc1cccc(Br)c1	inconclusive [inhibitor, partial curve, poor fit]
O=C(COc1ccc(CO)cc1)Nc1ccc(F)cc1	inactive
CCc1nc2ccc(C(=O)NCCCN3CCN(c4ccccc4F)CC3)cc2nc1CC	inactive
O=C(c1ccc(Cl)s1)N1CCc2ccccc21	inconclusive [inhibitor, single point]
COc1ccc(-n2c(SC3CCOC3=O)nc3ccccc3c2=O)cc1OC (centres undefined)	inactive
CCOC(=O)c1c(N)sc(C(O)(C(F)(F)F)C(F)(F)F)c1-c1ccc(OC)cc1OC	inconclusive [inhibitor, full curve, poor fit]
CCOC(=O)CNC(=O)c1ccc(C#CC2(O)CCCCC2)cc1	inconclusive [inhibitor, single point]
O=C(OCCN1CCOCC1)C(c1ccccc1)c1ccccc1	inconclusive [inhibitor, single point]
COc1ccc(NC(=O)Cn2nnc(-c3ccccc3F)n2)cc1Cl	inconclusive [inhibitor, partial curve]
CCOn1c(=O)c(-c2cccc([N+](=O)[O-])c2)[n+]([O-])c2ccccc21	inconclusive [inhibitor, full curve, poor fit]
CCCCOC(=O)c1[nH]c(C)c(C(=O)OC)c1C	inconclusive [inhibitor, partial curve, poor fit]
NC(=O)CC(NC(=O)c1ccccc1)c1ccc(NCCOc2ccccc2)c([N+](=O)[O-])c1 (centres undefined)	inactive
CC(=O)N1CCOc2ccc(S(=O)(=O)N3CC(C)CC(C)C3)cc21 (centres undefined)	inactive
COc1ccc(C(=O)Nc2nc(N)n(-c3ccccc3)n2)cc1	inconclusive [inhibitor, full curve, poor fit]
Cc1ccc(S(=O)(=O)N2CCCC2CNC(=O)C(=O)NCCN2CCOCC2)cc1 (centres undefined)	inconclusive [inhibitor, partial curve, poor fit]
COc1cccc(CNC(=O)CSc2ncc(S(=O)(=O)c3ccc(C)c(Cl)c3)c(=O)[nH]2)c1	inactive
O=C(NCc1ccncc1)/C(=C\c1ccc(F)cc1)NC(=O)c1ccccc1	inconclusive [inhibitor, partial curve, poor fit]
COC(=O)COc1ccc(S(=O)(=O)NCc2cccnc2)cc1C	inconclusive [inhibitor, partial curve]
CSCCC(NC(=O)c1ccccc1Cl)C(=O)N1CCN(C(C)=O)CC1 (centres undefined)	inconclusive [inhibitor, full curve, poor fit]
CCNC(=O)c1cc(S(=O)(=O)N2CCSCC2)ccc1OC	inconclusive [inhibitor, full curve, poor fit]
